Assay results as given in the GPR68 mutational scans of Howard et al. (2025).

B1: GPR68, Q15743 (parent)
chain: MGNITADNSSMSCTIDHTIHQTLAPVVYVTVLVVGFPANCLSLYFGYLQIKARNELGVYLCNLTVADLFYICSLPFWLQYVLQHDNWSHGDLSCQVCGILLYENIYISVGFLCCISVDRYLAVAHPFRFHQFRTLKAAVGVSVVIWAKELLTSIYFLMHEEVIEDENQHRVCFEHYPIQAWQRAINYYRFLVGFLFPICLLLASYQGILRAVRRSHGTQKSRKDQIQRLVLSTVVIFLACFLPYHVLLLVRSVWEASCDFAKGVFNAYHFSLLLTSFNCVADPVLYCFVSETTHRDLARLRGACLAFLTCSRTGRAREAYPLGAPEASGKSGAQGEEPELLTKLHPAFQTPNSPGSGGFPTGRLA

How the values were obtained:
[1] = variants of: B1; assay: cAMP reporter score (Enrich2 score, wild type = 0); higher = more signal; HEK293T, FACS bins
[2] = variants of: B1; assay: surface expression score (Enrich2 score, wild type = 0); higher = more signal; HEK293T, FACS bins

Row | Variant | cAMP reporter score ([1]; pH 5.5) | cAMP reporter score ([1]; pH 6) | cAMP reporter score ([1]; pH 6, modulator: ogerin) | cAMP reporter score ([1]; pH 6.5, modulator: ogerin) | surface expression score [2]
1 | G2_N3del | 0.874 | -0.167 | 0.579 | -0.282 | 0.177
2 | G2_N3insG | 0.793 | 0.634 | 0.538 | 0.947 | 0.614
3 | N3_I4del | 0.067 | -0.717 | 0.626 | 0.277 | -0.078
4 | N3_I4insGSG | 0.252 | 0.112 | 0.889 | -0.041 | 0.836
5 | N3_T5del | 0.261 | -0.001 | 0.346 | 0.18 | -0.555
6 | N3del | 0.542 | – | -0.293 | – | -0.368
7 | I4_A6del | 0.103 | -0.235 | 0.068 | -0.058 | -0.682
8 | I4_T5del | 0.444 | – | -0.137 | 0.046 | -0.657
9 | I4_T5insGS | -0.606 | -0.196 | -0.836 | -0.745 | -1.05
10 | T5_A6del | 0.148 | -0.397 | 0.288 | -0.437 | -0.495
11 | T5_A6insGS | -0.408 | 0.061 | -0.463 | -0.251 | -0.812
12 | T5_D7del | -0.635 | -0.869 | -0.395 | -1.27 | -1.11
13 | A6C | 0.641 | -0.8 | 0.598 | -0.577 | -0.481
14 | A6D | -0.229 | 0.085 | 0.115 | 0.06 | -0.036
15 | A6E | 0.246 | 0.258 | -0.044 | 0.435 | 0.045
16 | A6F | -0.43 | 0.32 | -0.401 | -0.082 | -0.717
17 | A6G | -0.772 | -0.527 | -0.69 | -0.436 | -1.23
18 | A6H | 0.11 | -0.082 | 0.803 | 0.293 | 1.49
19 | A6I | 0.177 | 0.437 | -0.223 | -0.498 | -0.773
20 | A6K | 0.471 | – | 0.625 | 0.374 | 0.52
21 | A6L | -0.342 | 0.185 | -0.358 | 0.004 | -0.692

Row | Variant | cAMP reporter score ([1]; pH 5.5) | cAMP reporter score ([1]; pH 6) | cAMP reporter score ([1]; pH 6, modulator: ogerin) | cAMP reporter score ([1]; pH 6.5, modulator: ogerin) | surface expression score [2]
22 | A6M | 0.01 | -0.045 | 0.182 | -0.219 | -0.859
23 | A6N | -0.475 | 0.643 | 0.049 | -0.652 | -0.072
24 | A6P | 0.178 | 0.023 | -0.029 | -0.482 | -0.439
25 | A6Q | 0.114 | 0.37 | 0.166 | 0.402 | 0.041
26 | A6R | 0.463 | 1 | 0.612 | 0.695 | 0.394
27 | A6S | -0.992 | -0.277 | -0.925 | -0.828 | -0.949
28 | A6T | 1.63 | 1.86 | 0.523 | – | 1.83
29 | A6V | 0.769 | 0.096 | 0.676 | -0.365 | 0.798
30 | A6W | 0.827 | 0.457 | 0.646 | 0.44 | 0.756
31 | A6Y | -0.331 | -0.163 | -0.032 | 0.052 | -0.731
32 | A6_D7insGSG | 0.021 | 0.503 | 0.056 | 0.81 | 0.336
33 | A6_N8del | -0.022 | -0.231 | -0.394 | -0.311 | -0.833
34 | D7A | 0.392 | 1.86 | 1.42 | 0.816 | 0.27
35 | D7C | -0.008 | -0.546 | -0.017 | -0.029 | -0.916
36 | D7E | -0.496 | -0.391 | -0.744 | -0.705 | -1.38
37 | D7F | 0.834 | 1.29 | 0.742 | 0.355 | -0.303
38 | D7G | 0.617 | 0.304 | 0.649 | 0.412 | 0.025
39 | D7H | 0.569 | 0.105 | -0.059 | 0.745 | -0.478
40 | D7I | 0.16 | 1.22 | 0.125 | 0.782 | -0.381
41 | D7L | -0.63 | 0.111 | -0.39 | 0.252 | -0.564
42 | D7M | 1.49 | 1.05 | 1.34 | 0.677 | 0.278

Row | Variant | cAMP reporter score ([1]; pH 5.5) | cAMP reporter score ([1]; pH 6) | cAMP reporter score ([1]; pH 6, modulator: ogerin) | cAMP reporter score ([1]; pH 6.5, modulator: ogerin) | surface expression score [2]
43 | D7N | -0.461 | 0.313 | -0.591 | -0.347 | -0.427
44 | D7P | 0.986 | – | 1.2 | 1.14 | 0.934
45 | D7Q | 2.21 | – | 2.44 | 2.45 | –
46 | D7R | 0.833 | -0.486 | 1.38 | 2.47 | 0.082
47 | D7S | 0.697 | 0.322 | 0.075 | 0.238 | -0.012
48 | D7T | 0.995 | 2.68 | 1.91 | 2.49 | 1.89
49 | D7V | 0.826 | 1.53 | 0.862 | 1.95 | 0.204
50 | D7W | 0.253 | 0.23 | 0.143 | 0.188 | 0.339
51 | D7Y | 0.219 | 0.856 | 0.426 | 0.523 | 0.213
52 | D7_N8del | -0.204 | -0.534 | -0.074 | -0.813 | -0.335
53 | D7_N8insGSG | 2.28 | 0.957 | 1.75 | 1.5 | 1.44
54 | N8_S9insGS | -0.462 | 0.061 | -0.383 | 0.465 | -0.636
55 | N8_S9insGSG | -0.436 | -0.233 | -0.457 | -0.428 | -0.266
56 | N8_S10del | 0.553 | 0.088 | 0.941 | -0.225 | –
57 | S9_S10insG | 0.084 | -0.52 | 0.107 | -0.667 | -0.235
58 | S9_S10insGS | -0.296 | -0.862 | -0.212 | -1.1 | -1.35
59 | S9del | 0.716 | 0.518 | 0.346 | 0.527 | -0.24
60 | S10_M11del | 0.385 | -0.046 | 0.489 | 0.595 | 0.487
61 | M11_S12insGSG | 0.69 | -0.825 | 0.552 | 0.626 | 0.742
62 | M11del | 0.264 | 0.542 | 0.336 | 0.253 | 0.031

Scores with a large standard error are left out. Two further conditions of the source, in which the scores hardly spread, are not listed. Names with del lack the residues named; names with ins carry added residues between the positions named. For some of these results: The data file names ogerin without a concentration.
